Measurements published in PubChem BioAssay AID1671194 (National Center for Advancing Translational Sciences (NCATS), 2021).
Hit rate of the full screen: of about 140,000 compounds, about 240 (0.17%) were called active. The inconclusive results got no clear call from the source; some entries with a clear call stand among them for comparison. The call rests on the fitted dose curve; in most records, active means well fitted inhibition curve with a large enough effect; inconclusive means small, poorly fitted or top-dose-only effect; inactive means no such curve, though single readings can be large or run the other way. Potencies of inconclusive entries are doubtful fits and often do not repeat.

Experiment: Primary qHTS assay for inhibitors of alpha-synuclein gene (SNCA) expression; further: nearly all actives have a fitted effect of over 45% in size
Details: HEK-293 SNCA-luciferase knock-in, luminescence, 24 h; series mostly up to 57.2 µM
Potency means the concentration at half of the fitted maximal effect; tags describe the fitted curve by direction and shape.

Potency, inconclusive:
COc1cccc(-c2ccc3ncnc(NCc4ccccc4)c3c2)c1 28.2 µM [inhibitor, single point], Cc1ccc(C2NC(=O)N(CC(=O)Nc3ccc4c(c3)OCO4)C3=C2C(=O)OC3)cc1 (stereo not drawn) 0.891 µM [inhibitor, full curve], COc1ccc(NC(=O)c2ccc3c(c2)N(C)C2CCCN2C3=O)cc1OC (stereo not drawn) 2 µM [inhibitor, partial curve, poor fit], O=C(c1cc2n(n1)CC(c1ccc(Cl)cc1)OC2)N1CCN(c2ccccc2Cl)CC1 (stereo not drawn) 7.08 µM [inhibitor, full curve, poor fit], CC(=O)N1CCC2(CC1)C(=O)NN=C2c1ccccn1 10 µM [inhibitor, full curve, poor fit], Cc1ccccc1S(=O)(=O)N1CCn2c(nn(CC3CC3)c2=O)C1 20 µM [inhibitor, partial curve, poor fit], Cc1ccc(-n2ncc(C(=O)NCCc3ccccc3)c2C2CCN(C(=O)OC(C)(C)C)CC2)c(C)c1 39.8 µM [inhibitor, single point], CNC(=O)C1(N2CCC[C@H]2C(=O)NCC2CC2)COC1 7.94 µM [inhibitor, single point], CCCCc1ncc(-c2c(-c3ccccc3)ncn2CCCn2ccnc2)[nH]1 1.58 µM [inhibitor, partial curve, poor fit], COc1cccc(NC(=O)Cn2c(=O)cc(C)c3c(C)nn(-c4cccc(F)c4)c32)c1 39.8 µM [inhibitor, single point], Oc1cccc(-c2nc(N3CCOCC3)c3oc4ncccc4c3n2)c1 11.1 µM [inhibitor, partial curve, poor fit], CCn1cc(-c2ccccc2)cc1C(=O)NC(C)c1cccnc1 (stereo not drawn) 15.8 µM [inhibitor, partial curve, poor fit], Nc1nc(CCC(=O)N2CC[C@@H](NC(=O)c3cccnc3)[C@H](O)C2)cs1 39.8 µM [inhibitor, single point], Cc1ccc2c(=O)cc(C(=O)Nc3ccc(S(=O)(=O)N4CCC(C)CC4)cc3)oc2c1C 35.5 µM [inhibitor, single point], COc1cccc(NC(=O)Cn2c(-c3cccc(Cl)c3)nc(C)c(CCO)c2=O)c1 14.1 µM [inhibitor, single point], Nc1c(C(=O)NCc2ccc(Cl)cc2Cl)nnn1Cc1ccc(Br)cc1 39.8 µM [inhibitor, single point], COc1cccc(C2Cn3nnc(-c4nc(-c5ccc(OC(C)C)cc5)no4)c3CO2)c1 (stereo not drawn) 39.8 µM [inhibitor, single point], O=C(CC1(O)C(=O)N(CCc2ccccc2)c2ccc(Br)cc21)c1ccc(F)cc1 (stereo not drawn) 22.4 µM [inhibitor, single point], Cc1cccc(CNC(=O)c2ccc(-c3nnc4ccc(NC(=O)C5CCC5)cn34)cc2)c1 39.8 µM [inhibitor, single point], Cc1cc(=O)n(CC(=O)Nc2cc(Cl)ccc2C)c(N2CCC(C)CC2)n1 17.8 µM [inhibitor, partial curve, poor fit], COc1cccc(-n2c(-c3ccc(Cl)cc3)cc3c2CC(C)(C)CC3=O)c1 25.1 µM [inhibitor, single point], Cc1ncsc1C1N(C2CCN(C(=O)C3CC3)CC2)C(=O)C12CCCC2 (stereo not drawn) 39.8 µM [inhibitor, single point], COc1ccc(-n2c(=O)c(-c3cn(C)c4ccccc34)nc3cnc(N4CCNCC4)nc32)cc1 25.1 µM [inhibitor, partial curve, poor fit], CC(C)NC(=O)N1CCOc2ccc(CCC(=O)O)cc2C1 39.8 µM [inhibitor, single point], COc1ccc(CC(=O)N2CCC(N3CC4CC(C3)[C@H]3CCCC(=O)N3C4)CC2)cc1 (stereo partly drawn) 6.31 µM [inhibitor, single point], CN(Cc1cccnc1)c1ccc2ncc(Nc3cccc(C(F)(F)F)c3)n2n1 14.1 µM [inhibitor, full curve, poor fit], CCn1ccc(C(=O)N2CCC(c3nc(-c4cccn4C)no3)CC2)n1 2.82 µM [inhibitor, full curve], O=C(NC[C@H]1O[C@@H](CO)[C@@H](O)[C@H]1N1CCN(c2cccc(C(F)(F)F)c2)CC1)c1ccc(C(F)(F)F)cc1 39.8 µM [inhibitor, single point], O=C(Nc1cccc(C(F)(F)F)c1)N[C@H]1CO[C@H]2[C@@H]1OC[C@@H]2n1nnnc1-c1ccc2c(c1)OCO2 39.8 µM [inhibitor, single point], O=C(Cc1c[nH]c2ccccc12)N1CCc2c(nc(-c3ccc(F)cc3)[nH]c2=O)C1 12.6 µM [inhibitor, partial curve, poor fit], O=C(Nc1ccccn1)[C@@H]1C[C@@H](c2ccc(F)cc2)N(Cc2ccccc2)C1 7.08 µM [inhibitor, full curve], O=C(Nc1cccc(F)c1)N1CCCC1c1nc(C2CCOCC2)no1 (stereo not drawn) 3.98 µM [inhibitor, single point], Cc1nc(-c2ccc(F)cc2)n(CC(=O)Nc2ccc(F)c(Cl)c2)c(=O)c1CCO 35.5 µM [inhibitor, single point], COc1cccc(CN2CCCC(NC(=O)NCc3cccs3)C2)c1 (stereo not drawn) 7.94 µM [inhibitor, full curve, poor fit], COc1cc(OC)cc(-c2cc3nc(C)c(CCC(=O)NCc4ccccc4)c(C)n3n2)c1 3.98 µM [inhibitor, full curve], Cc1ccc(C(=O)NCc2nnc3c(-c4nc(C)no4)cccn23)cc1 8.91 µM [inhibitor, partial curve], Cc1cc(F)ccc1S(=O)(=O)Nc1ccc2oc3c(c2c1)CC(C)CC3 (stereo not drawn) 2.82 µM [inhibitor, full curve, poor fit], Cc1nc2ccn(Cc3ccccc3)c(=O)c2cc1C(=O)N1CCN(c2ccccc2F)CC1 39.8 µM [inhibitor, single point], Cc1ccc(NC(=O)CN2CCN(S(=O)(=O)c3ccc(C(C)C)cc3)CC2)cc1F 39.8 µM [inhibitor, single point], CCCOc1ccc(CN(C(=O)Cc2coc3ccc(CC)cc23)C2CCS(=O)(=O)C2)cc1 (stereo not drawn) 39.8 µM [inhibitor, single point], O=C(c1ccc(-c2cccc(O)c2)nc1)N1CCC(CCc2ccccc2)CC1 17.8 µM [inhibitor, single point], Cc1ccc(-n2cc(C(=O)Oc3cccc(C)c3)c3ccccc3c2=O)cc1 15.8 µM [inhibitor, partial curve, poor fit], COc1ccc(CC(=O)NC2CCCc3c2[nH]c2c(Cl)cccc32)cc1 (stereo not drawn) 12.6 µM [inhibitor, partial curve], COCCC(=O)N1CCCOCCNC(=O)[C@@H]2CCC[C@@H]21 39.8 µM [inhibitor, single point], O=C(Nc1ccc(S(=O)(=O)N2CCCCC2c2cccnc2)cc1)c1ccc(Br)cc1 (stereo not drawn) 39.8 µM [inhibitor, single point]

Potency, inactive:
CNC(=O)[C@@H]1C[C@@H](n2cc(CN(C)C(=O)c3cc4ccccc4s3)nn2)CN1, Cc1ncc(CO)c(CN2CCCC3(Cc4ccccc4CNC3=O)C2)c1O (stereo not drawn), NCc1ccc(-c2cccc(Cl)c2)cc1, O=C(Nc1cccc(Br)c1)N1CCC2(CC1)SCC(=O)N2Cc1ccccc1, Cc1noc2c(-c3ccc(CO)cc3)cc(-c3cccs3)nc12, COc1ccc(CNc2ncnc3c2CN(C2CCNC2)C(=O)CN3C)cc1OC (stereo not drawn), CC(C)c1nc2nccc(-c3ccccc3)n2n1, COc1ccc(C2=NOC3(CCCN(C(=O)c4ccc5c(c4)OCO5)C3)C2)cc1 (stereo not drawn), Cc1ccc(-n2c(C3CCN(C(=O)c4ccco4)CC3)n[nH]c2=O)cc1, COc1cccc(-c2cc(C3CCN(C(=O)Nc4ccc(OC)c(OC)c4)CC3)[nH]n2)c1, COc1ccccc1CNC(=O)c1c(C)oc2ccn(Cc3cccc(F)c3)c(=O)c12, COC(=O)c1ccc(CN2C(=O)[C@@H]3C[C@@H](O)CN3C3(CN(Cc4ccc(F)cc4)C3)C2=O)cc1, O=c1cc(N2CCOCC2)oc2c(-c3ccncc3)nccc12, COc1cccc(-c2nc(NCc3cccnc3)ncc2C(=O)O)c1, COc1ccc(Cn2c(=O)c(C(=O)NCc3ccccc3)nc3cccnc32)cc1, CCOC(=O)C1(Cc2ccc(F)cc2)CCCN(C(=O)c2cc3nc(C)cc(C)n3n2)C1 (stereo not drawn), COc1ccc(Cn2c(=O)[nH]c3cccnc32)cc1, O=C(NCc1ccc(C(F)(F)F)cc1)[C@@H]1CCCN1c1nccc(Nc2ccccc2Cl)n1
